From ChEMBL document CHEMBL1157539, “Thousands of chemical starting points for antimalarial lead identification” (Nature, 2010)
The full ranking holds about 13,000 compounds; the median of “IFI” is about 4, and the highest 2% start at about 17. This is one part of the list.

assay: GSK_TCMDC: Inhibition Frequency Index (IFI). The number of non-kinase HTS assays where a compound showed > 50 % inhibition, expressed as a percentage of the number of such assays in which the compound was tested (-0 is zero); format: functional

Q: For O=[N+]([O-])c1cccc(/C=N/Nc2ccnc3ccc(C(F)(F)F)cc23)c1, which IFI is on record?
A: -0%

Q: With O=[N+]([O-])c1cccc(NC(=S)N2CCCN(Cc3ccc(Cl)cc3Cl)CC2)c1 as the compound, how does the IFI read?
A: 2.99%

Q: With COc1cc(CCON2C(N)=NC(N)=NC2(C)C)cc(OC)c1OC as the compound, how does the IFI read?
A: 3.73%

Q: For Cc1cccc2nc(-c3ccc(-c4cccc(CNCc5cccc(N)c5)c4)s3)[nH]c12, which IFI is on record?
A: 7.62%

Q: With Cc1cccc2nc(-c3cccc(-c4cccc(CN5CCCC5CN)c4)c3)[nH]c12 (configuration not stated) as the compound, how does the IFI read?
A: 4.95%

Q: With CCc1nc(N)nc(N)c1-c1ccc(F)c(F)c1 as the compound, how does the IFI read?
A: 1.49%

Q: Which IFI does the source give for COc1ccc2nc(N=C3NC4(c5ccccc5)NC(=Nc5nc6ccc(OC)cc6[nH]5)NC4(c4ccccc4)N3)[nH]c2c1 (configuration not stated) here?
A: 2.99%

Q: Which IFI does the source give for O=C(Nc1ccncc1)c1cn(-c2ccccc2)nc1-c1cccs1 here?
A: 3.33%

Q: For COc1cc2nc(N3CCC(CNC(=O)c4ccc(OC(F)(F)F)cc4)CC3)nc(N)c2cc1OC, which IFI is on record?
A: 6.09%

Q: With CCn1c2ccccc2c2cc(Cc3cnc(N)nc3N)ccc21 as the compound, how does the IFI read?
A: 3.94%

Q: For Cc1ccc(N2C(=O)C3C(C2=O)C2(c4ccccc4)C(=O)C3(c3ccccc3)C(c3ccccc3)=C2c2ccccc2)c(C)c1 (configuration not stated), which IFI is on record?
A: 0.75%

Q: Which IFI does the source give for COc1ccc(CNc2nc(Nc3cccc(C#N)c3)nc(Nc3cccc(C#N)c3)n2)cc1Cl here?
A: 4.38%

Q: Which IFI does the source give for O=C(N[C@@H](CC1CCCCC1)C(=O)NCc1cccc2ccccc12)c1ccc(O)c(-c2ccc(Cl)c(Cl)c2)c1 here?
A: 1.47%

Q: For CCCNCc1ccc(-c2ccc(CN(CCOC)C(=O)c3ccco3)cc2)nc1, which IFI is on record?
A: 0.69%

Q: Which IFI does the source give for O=C(O[C@@H]1CN[C@H](C#Cc2cc3ncnc(Nc4ccc5c(cnn5Cc5cccc(F)c5)c4)c3s2)C1)N1CCCC1 here?
A: 2.59%

Q: Which IFI does the source give for Clc1cccc(CNC2CCN(CC3CCCCC3)CC2)c1 here?
A: 2.03%

Q: For Nc1nc(N)c2c(ccc3c2ccn3Cc2ccc(-c3ccccc3)cc2)n1, which IFI is on record?
A: 12.8%

Q: Which IFI does the source give for Cn1cncc1C(=O)Nc1cccc(-c2cccc(-c3nc4cc(F)ccc4[nH]3)c2)c1 here?
A: 2.7%

Q: Which IFI does the source give for Cc1cc(C=C2SC(=Nc3ccccc3)N(C3CCCC3)C2=O)c(C)n1-c1ccc(Cl)cc1 here?
A: -0%

Q: With CO/C(=C\C=C\c1cc2cc(Cl)c(Cl)cc2[nH]1)C(=O)NCCCN1CCC(c2ccccc2)CC1 as the compound, how does the IFI read?
A: 12.6%

Q: With Cc1ccc(C(O)CNc2ccnc(Nc3cccc(-c4csc(C)n4)c3)n2)cc1 (configuration not stated) as the compound, how does the IFI read?
A: 8.74%

Q: With COc1cc(C(C)C)ccc1C1CCN(CCCCNC(=O)c2ccc(NC(=O)c3ccc(Cl)cc3)cc2)CC1 as the compound, how does the IFI read?
A: 10.4%

Q: With CS(=O)(=O)c1ccc(-n2nc(C(F)(F)F)cc2-c2ccc(C=NOCC(=O)O)o2)cc1 as the compound, how does the IFI read?
A: 0.74%

Q: With CC(C)(C)c1ccc(NC(=O)c2cccc(CN3CCN(Cc4cccc(O)c4)CC3)c2)cc1 as the compound, how does the IFI read?
A: 6.67%

Q: For O=C(Cc1c[nH]cn1)Nc1cccc(-c2cccc(-c3nc4cc(F)ccc4[nH]3)c2)c1, which IFI is on record?
A: 5.5%

Q: Which IFI does the source give for Cc1cc(-c2nc3ccc(CN4CCN(C)CC4)cc3[nH]2)nn1Cc1cc(Cl)ccc1OCc1ccccc1 here?
A: 11.5%

Q: For CC1CC(NCCCNc2cc(=O)c3ccccc3[nH]2)c2c1cc(Cl)c(Cl)c2Cl (configuration not stated), which IFI is on record?
A: 6.52%

Q: Which IFI does the source give for CCC(ON1C(N)=NC(N)=NC1(C)C)c1ccc(Cl)cc1 (configuration not stated) here?
A: 4.44%

Q: For Oc1ccc2nc(N3CCNCC3)nc(NCCCc3ccccc3)c2c1, which IFI is on record?
A: 1.52%

Q: For O=C(Nc1cccc(C(F)(F)F)c1)c1cccc(S(=O)(=O)NCC2CCN(CC3CCCCC3)CC2)c1, which IFI is on record?
A: -0%

Q: Which IFI does the source give for O=C(Nc1cccc(CN2CCCN(Cc3cccc(Cl)c3)CC2)c1)c1ccc(-c2ccccc2)cc1 here?
A: 6.85%

Q: Which IFI does the source give for NCc1cccc(-c2ccc3ccnc(N)c3c2)c1 here?
A: 2.86%

Q: With COc1ccc(Nc2nccc(-c3ccc4c(-c5ccsc5)cnc(N)c4c3)n2)cc1 as the compound, how does the IFI read?
A: 2.13%

Q: For Cc1cc(C)cc(NC(=S)NCCCCN2CCN(c3cccc(Cl)c3)CC2)c1, which IFI is on record?
A: 4.29%

Q: For CCNc1cc(C)nc(Nc2ccc(NC(=O)c3cccs3)cc2)n1, which IFI is on record?
A: 9.62%

Q: With COc1cccc(C=NNc2cc(C)nc3c(OC)cccc23)c1 as the compound, how does the IFI read?
A: 2.84%

Q: With C[C@H](NC(=O)[C@H](Cc1ccccc1)NC(=O)OC(C)(C)C)C(=O)N[C@@H](CC1CCCCC1)C(O)CN (some centres not stated) as the compound, how does the IFI read?
A: 2.22%

Q: Which IFI does the source give for COc1cccc(Nc2nc(C)cc(NCc3ccc(-c4c(C)noc4C)cc3)n2)c1 here?
A: 4.62%

Q: With O=C(NCCCCN1CCN(c2ccc3c(c2)CCC3)CC1)c1ccc(NC(=O)c2ccc(Cl)cc2)cc1 as the compound, how does the IFI read?
A: 2.59%

Q: Which IFI does the source give for CCOC(=O)N1CCN(CCCCNc2c3ccc(Cl)cc3nc3ccc(OC)cc23)CC1 here?
A: 5.3%

Q: With O=C(Cc1cccs1)NC(CCCN1CCC(Oc2cccc(Cl)c2)CC1)c1ccc(Cl)c(Cl)c1 (configuration not stated) as the compound, how does the IFI read?
A: 7.04%

Q: For O=C(NC1CCCCC1)N(Cc1cccc(-c2ccc(CNCCc3ccccc3)cc2)c1)C1CCN(Cc2ccccc2)CC1, which IFI is on record?
A: 7.97%

Q: With CC(=O)Nc1ccc(CN2CCC(NC(=O)c3ccc(-c4cccc(F)c4)s3)CC2)cc1 as the compound, how does the IFI read?
A: 1.75%

Q: Which IFI does the source give for c1ccc(CCNCc2ccc(-c3ccc(CNCc4ccc5c(c4)OCO5)cc3)nc2)cc1 here?
A: 6.57%

Q: Which IFI does the source give for COc1cc(-c2cc3cc(Cl)c(Cl)cc3[nH]2)ccc1C(=O)NC1CCN(Cc2ccccc2)CC1 here?
A: -0%

Q: With Cc1cc(NCCCOc2ccc(Cl)cc2)nc(NCc2ccccc2)n1 as the compound, how does the IFI read?
A: 10%

Q: Which IFI does the source give for CC1CN(Cc2ccc(-c3ccc(-c4nc5ccccc5[nH]4)cc3)cc2)CC(C)O1 (configuration not stated) here?
A: 6.94%

Q: For COc1ccc(CNc2nc(NCc3ccccc3)c3cc(OC)c(OC)cc3n2)cc1OC, which IFI is on record?
A: 7.14%

Q: For CCN1C(=O)C(CC(=O)Nc2cccc(Cl)c2)N(Cc2ccc(OC)c(OC)c2)C1=S (configuration not stated), which IFI is on record?
A: 0%

Q: For N#Cc1ccc(/C=C/C(=O)NCCCCCN2CCN(C(=O)Nc3ccc(Cl)c(C(F)(F)F)c3)CC2)cc1, which IFI is on record?
A: 9.8%

Q: Which IFI does the source give for Cc1cccc2nc(-c3ccc(-c4cccc(CN5CCN(c6ccc(C#N)cn6)CC5)c4)s3)[nH]c12 here?
A: 6.86%

Q: With CCOc1cc(C(=O)NCc2cc(Cl)cc(Cl)c2)ccc1-c1nc2cc(Cl)ccc2[nH]1 as the compound, how does the IFI read?
A: 1.53%

Q: For CCCCOP(=O)(OCCCC)C(=Cc1ccc(O)c2ccccc12)P(=O)(OCCCC)OCCCC, which IFI is on record?
A: 7.75%

Q: For CCCN(c1ccc(C(F)(F)F)cc1[N+](=O)[O-])S(=O)(=O)C(c1ccccc1)c1ccc(C(F)(F)F)cc1[N+](=O)[O-] (configuration not stated), which IFI is on record?
A: 0%

Q: For COc1ccc(-c2nc3ccc(C)nc3nc2-c2ccc(OC)cc2)cc1, which IFI is on record?
A: -0%

Q: Which IFI does the source give for O=C(CCn1cncn1)N1CCCC(c2[nH]c3ccccc3c2-c2ccncc2)C1 (configuration not stated) here?
A: 1.16%

Q: For O=C1SC(S)=NC1=CNCCCCCCO, which IFI is on record?
A: 4.44%

Q: With Cc1cc(=NN=Cc2ccccc2)c2cc(F)ccc2[nH]1 as the compound, how does the IFI read?
A: 2.99%

Q: With O=C(c1cc(-c2ccccc2)n[nH]1)N1CCN(S(=O)(=O)c2ccc(Cl)s2)CC1 as the compound, how does the IFI read?
A: -0%

Q: Which IFI does the source give for CCc1cc2c(=O)c(-c3nc(C)cs3)c([C@H](N)Cc3ccc(O)cc3)oc2cc1O here?
A: 2.11%

Q: With Cc1cc(N)cc2nc(-c3ccc(N)cc3)[nH]c12 as the compound, how does the IFI read?
A: 3.42%

Q: With CC(C)Cn1c2ccccc2c2nc3nc(N)nc(N)c3nc21 as the compound, how does the IFI read?
A: 4.41%

Q: Which IFI does the source give for NC(=O)C1CCN(Cc2ccc(-c3ccc(-c4nc5cc(C(F)(F)F)ccc5[nH]4)cc3)cc2)CC1 here?
A: 5.77%

Q: For COc1ccccc1-c1nc2nc(N)nc(N)c2nc1-c1ccccc1OC, which IFI is on record?
A: 0.7%

Q: For O=C(NCc1cccnc1)C(c1cc2ccccc2o1)N1CCN(C(c2ccccc2)c2ccccc2)CC1 (configuration not stated), which IFI is on record?
A: 3.47%

Q: For Cc1cc(NCCCCCCN)nc(Nc2ccc(Cl)cc2)n1, which IFI is on record?
A: 2.92%

Q: For COc1cc(Cc2cnc(N)nc2N)c2c(c1OC)OC(C)C=C2 (configuration not stated), which IFI is on record?
A: 0.74%

Q: Which IFI does the source give for CN1CCC=C(C(=O)NCC(C)(C)c2nc(-c3ccc(Cl)c(O)c3)c(-c3ccncc3)[nH]2)C1 here?
A: 0%

Q: Which IFI does the source give for CN(C)Cc1cccc(-c2ccc(NC(=O)c3ccc4c(=O)n(Cc5ccoc5)cnc4c3)cc2)c1 here?
A: 5.71%

Q: For Cc1ccccc1Cc1cccc(/N=C(\N)Nc2ccc(Cl)cc2)n1, which IFI is on record?
A: 31.2%

Q: With Cc1cc(N2CCC(NS(=O)(=O)c3cccc4cccnc34)CC2)nc(Nc2cccc(C#N)c2)n1 as the compound, how does the IFI read?
A: -0%

Q: For CCc1ccc(CN2CCCCC(NC(=O)c3cc(-c4ccccc4F)cs3)C2)cc1 (configuration not stated), which IFI is on record?
A: 3.64%

Q: Which IFI does the source give for CN1CCN(c2ccnc3ccc(NC(=O)N(C)c4ccc(Cl)c(Cl)c4)cc23)CC1 here?
A: 0.73%

Q: Which IFI does the source give for COc1ccc2oc(=O)c(C#N)c(O)c2c1 here?
A: -0%

Q: Which IFI does the source give for COc1ccc(C2CC(c3ccccc3)=NN2C(=O)c2ccc(Br)o2)cc1 (configuration not stated) here?
A: 0.68%

Q: For CCOC(=O)c1ccc(N=C2SC(=Cc3cc(Br)ccc3O)C(=O)N2C)cc1, which IFI is on record?
A: 3.38%

Q: For CC1(C)N=C(N)N=C(NOCc2ccc(Cl)c(Cl)c2)N1, which IFI is on record?
A: 0%

Q: For CC(C)(CNC(=O)[C@@H]1CCCN(CCOc2ccc(F)c(F)c2)C1)c1nc(-c2ccc(Cl)c(O)c2)c(-c2ccncc2)[nH]1, which IFI is on record?
A: 5.04%

Q: With O=C(/C=C/c1ccc(Cl)c(Cl)c1)NCCCCCN1CCC(n2c(=O)[nH]c3ccccc32)CC1 as the compound, how does the IFI read?
A: 7.41%

Q: For COc1cccc(-c2ccc(NC(=O)C3CCCN(Cc4cccc(OC)c4O)C3)cc2)c1 (configuration not stated), which IFI is on record?
A: 4.35%

Q: Which IFI does the source give for Cc1[nH]c(C)c(-c2ccc(Oc3cccc(Cl)c3)cc2)c(=O)c1Br here?
A: 8.21%

Q: Which IFI does the source give for O=C(/C=C/c1ccc(Cl)c(Cl)c1)NCCCCCN1CCC(NC(=S)Nc2ccc(F)cc2F)CC1 here?
A: 7.14%

Q: With Cc1cc(NCCC(=O)NCc2cccc(F)c2)nc(NCCc2ccc(F)cc2)n1 as the compound, how does the IFI read?
A: 0%

Q: For COc1ccc(-c2cccc(NC(=O)c3ccc(C#N)cc3)c2)cc1CN1CCCC1, which IFI is on record?
A: 4.9%

Q: With COc1ccc(CNCc2ccc(F)cc2)cc1-c1ccc(S(=O)(=O)NCCN2CCCC2)s1 as the compound, how does the IFI read?
A: 10.3%

Q: For COc1ccccc1-n1c(SCC(=O)c2ccc3c(c2)CC(=O)N3C)nnc1-c1cccs1, which IFI is on record?
A: 6.38%

Q: With Cc1nc(C)c(-c2ccc(S(=O)(=O)c3ccc(Cl)cc3)cc2)c(O)c1Cl as the compound, how does the IFI read?
A: 0.78%

Q: Which IFI does the source give for CCCCc1ccc(NC(=O)Nc2ccc3c(c2)CCNCC3)cc1 here?
A: 4.32%

Q: Which IFI does the source give for CC1CCCCN1CCCNC(=O)c1cccc(-c2cc3cc(Cl)c(Cl)cc3[nH]2)c1 (configuration not stated) here?
A: 4.35%

Q: Which IFI does the source give for OC(CN1CCN(C2CCCCC2)CC1)Cn1c2ccccc2c2cc(Br)ccc21 (configuration not stated) here?
A: 3.17%

Q: Which IFI does the source give for COCn1ccc2c3c(N)nc(N)nc3ccc21 here?
A: 1.4%

Q: With CN(C)CCNCc1ccc(-c2ccc(-c3nc4ccccc4[nH]3)s2)cc1 as the compound, how does the IFI read?
A: 3.96%
